For one experiment, the target named is T1, COX17-FLAG (human) (UniProt Q14061).
T1 sequence: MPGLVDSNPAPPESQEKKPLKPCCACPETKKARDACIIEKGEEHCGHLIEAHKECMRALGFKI
Briefly: cross-linking + co-IP; transient interactions: mitochondria treated with 1 mM DSP 1.5 h at 4 C (DMSO as vehicle control), quenched with 10 mM Tris-HCl, extracted in PBS, 0.4% DDM, anti-FLAG beads, immunoblotting for 13 candidate proteins; also in KO backgrounds and after chloramphenicol treatment. For orientation: Immunoblotting shows a protein as a band on a membrane.

The target in experiment [1] is T2, COX11-FLAG (human) (UniProt Q9Y6N1).
T2 sequence: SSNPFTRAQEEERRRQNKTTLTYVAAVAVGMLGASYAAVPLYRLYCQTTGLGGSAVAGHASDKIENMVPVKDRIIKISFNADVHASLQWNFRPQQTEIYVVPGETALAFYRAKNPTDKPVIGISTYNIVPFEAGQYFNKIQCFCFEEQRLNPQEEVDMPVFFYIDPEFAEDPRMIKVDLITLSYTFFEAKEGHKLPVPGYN
The description is as above.

In experiment [2] the target is T3, COX11 C219D-FLAG (human) (UniProt Q9Y6N1).
T3 sequence: T2 sequence with C144D
Described as above.

In the next experiment the target is T4, PET191-FLAG (human) (UniProt Q86WW8).
T4 sequence: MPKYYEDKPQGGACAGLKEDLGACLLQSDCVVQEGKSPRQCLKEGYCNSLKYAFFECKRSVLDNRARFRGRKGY
The experiment is described as above.

In the next experiment the target is T5, SCO2-FLAG (human) (UniProt O43819).
T5 sequence: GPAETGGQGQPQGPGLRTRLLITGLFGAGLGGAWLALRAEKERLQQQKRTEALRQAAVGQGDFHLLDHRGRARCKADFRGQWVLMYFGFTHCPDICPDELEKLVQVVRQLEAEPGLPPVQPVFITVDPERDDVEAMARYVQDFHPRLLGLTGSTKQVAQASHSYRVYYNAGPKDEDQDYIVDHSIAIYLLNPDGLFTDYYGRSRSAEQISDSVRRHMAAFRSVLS
The description is as above.

A further experiment concerns the target T6, COX16-FLAG (human) (UniProt Q9P0S2).
T6 sequence: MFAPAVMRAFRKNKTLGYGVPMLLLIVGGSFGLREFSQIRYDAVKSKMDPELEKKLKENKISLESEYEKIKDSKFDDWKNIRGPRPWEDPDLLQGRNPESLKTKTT
The description is as above.

A further experiment concerns the target T7, SCO1-FLAG (human) (UniProt O75880).
T7 sequence: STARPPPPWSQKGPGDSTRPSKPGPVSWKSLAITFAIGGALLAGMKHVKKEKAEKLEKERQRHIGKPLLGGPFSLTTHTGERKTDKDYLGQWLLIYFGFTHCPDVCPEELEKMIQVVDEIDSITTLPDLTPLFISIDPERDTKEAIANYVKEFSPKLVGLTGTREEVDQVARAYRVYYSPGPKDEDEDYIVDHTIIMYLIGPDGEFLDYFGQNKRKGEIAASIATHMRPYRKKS
The experiment is described as above.

The target in experiment [3] is T2, COX11-FLAG (human). The experiment can be described thus: co-IP; stable interactions: mitochondria without crosslinker (DMSO vehicle), extracted in PBS, 0.4% DDM, anti-FLAG beads 4 h at 4 C, five washes in PBS 0.05% DDM, immunoblotting; for COX11-COX19 also after pre-incubation of mitochondria with 5 mM GSH.
For experiment [4], the target named is T3, COX11 C219D-FLAG (human). The description is as above.
The target of experiment [5] is T8, PET191(C30A, C41A)-FLAG (human) (UniProt Q86WW8).
T8 sequence: T4 sequence with C30A, C41A
Briefly: cross-linking + co-IP; transient interactions: mitochondria treated with 1 mM DSP 1.5 h at 4 C (DMSO as vehicle control), quenched with 10 mM Tris-HCl, extracted in PBS, 0.4% DDM, anti-FLAG beads, immunoblotting for 13 candidate proteins; also in KO backgrounds and after chloramphenicol treatment.

Experiment [6] addresses T9, COX19-FLAG (human) (UniProt Q49B96).
T9 sequence: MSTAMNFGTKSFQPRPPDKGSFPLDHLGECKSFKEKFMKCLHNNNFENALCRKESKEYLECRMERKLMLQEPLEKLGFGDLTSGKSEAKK
Described as above.

The target of experiment [7] is T9, COX19-FLAG (human). Briefly: co-IP; stable interactions: mitochondria without crosslinker (DMSO vehicle), extracted in PBS, 0.4% DDM, anti-FLAG beads 4 h at 4 C, five washes in PBS 0.05% DDM, immunoblotting; for COX11-COX19 also after pre-incubation of mitochondria with 5 mM GSH.

Where a chain is given by its changes, count along the chain named. Results are given in words; binding and its absence hold for the method and conditions named. Binding seen in cells or lysates may run through a third protein. Some results given as binding are weak or reduced against the parent protein; the word gives no strength. Sequences can lack the tags named with a protein.

B1: SURF1 (protein, UniProt Q15526 1-300)
chain: MAAVAALQLGLRAAGLGRAPASAAWRSVLRVSPRPGVAWRPSRCGSSAAEASATKAEDDSFLQWVLLLIPVTAFGLGTWQVQRRKWKLNLIAELESRVLAEPVPLPADPMELKNLEYRPVKVRGCFDHSKELYMMPRTMVDPVREAREGGLISSSTQSGAYVVTPFHCTDLGVTILVNRGFVPRKKVNPETRQKGQIEGEVDLIGMVRLTETRQPFVPENNPERNHWHYRDLEAMARITGAEPIFIDANFQSTVPGGPIGGQTRVTLRNEHLQYIVTWYGLSAATSYLWFKKFLRGTPGV
Regarding B1, the binding entry is on record as “no binding” in the experiment with COX17-FLAG (human); “binds” with COX11-FLAG (human) [1]; “binds” with COX11 C219D-FLAG (human) [2]; “no binding” in the experiment with PET191-FLAG (human); “binds” in the experiment with SCO2-FLAG (human); “binds” in the experiment with COX16-FLAG (human). Besides, the binding entry with SCO1-FLAG (human), with COX11-FLAG (human) [3] and with COX11 C219D-FLAG (human) [4] was “binds” throughout.

B2: COX11 (endogenous) (protein, UniProt Q9Y6N1 76-276)
chain: T2 sequence
B2: the binding entry (in [5]; with PET191-FLAG (human); with SCO2-FLAG (human); in the experiment with COX19-FLAG (human) [6]; with COX16-FLAG (human); with SCO1-FLAG (human)) was “binds” each time. Also, the binding result in the experiment with COX19-FLAG (human) [7] was “binds”.

(Values after paper PMC9232578.)
